Where a name gives a salt, the structure may show the parent alone. Over roughly 2,800 compounds, “cell viability relative to vehicle” has its median near 1.1; the lowest 2% begin near 0.19. The list shows a part of the results.

This test concerns NCI-H2228 parental. The test can be described thus: cell viability relative to vehicle (fraction of vehicle); NCI-H2228 is an ALK-positive lung cancer line and DTP means drug-tolerant persister; higher = less growth inhibition. To be noted: 100 nM; treatment time 6 days. The method in brief: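 The 3114-agent TargetMol anti-cancer compound library was tested at 100 nM for 6 days on parental NCI-H2228 cells and on persister cells derived with 1000 nM of a targeted drug for 13 days. ATP readout by the CellTiter-Glo 3D Cell Viability Assay gave cell viability relative to DMSO vehicle-treated cells.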
As to `O=C(NCCO[N+](=O)[O-])c1cccnc1` [Nicorandil], the cell viability stood at 1.14. For `CCCN(CCC)C(=O)C1=Cc2ccc(-c3ccc(C(=O)N4CCCC4)cc3)cc2N=C(N)C1` [Motolimod], the cell viability was 1.01. Under `CN(C)CCOc1ccc(/C(=C(/CCCl)c2ccccc2)c2ccccc2)cc1` [Toremifene citrate] stands 1.31; under `CN(C)CCOc1ccc(/C(=C(/CCCl)c2ccccc2)c2ccccc2)cc1` [Toremifene], 1.15; under `CC(C(=O)O)c1ccc(N2Cc3ccccc3C2=O)cc1` (stereo not drawn) [Indoprofen], 0.995.

For the compound `CO[C@@]12[C@H](COC(N)=O)C3=C(C(=O)C(C)=C(N)C3=O)N1C[C@@H]1N[C@@H]12` [Mitomycin C], the cell viability worked out at 1. `COc1cc(O)c(CC=C(C)C)c(O)c1C(=O)/C=C/c1ccc(O)cc1` [Xanthohumol]: the cell viability is 1.12.

For the compound `Cc1cc(/N=N/c2ccc(S(=O)(=O)Nc3ccccn3)cc2)c(N)cc1O`, the cell viability amounted to 1.07. For `Cc1ncc(NC(=O)c2ccc(CN3CCN(C)CC3)c(C(F)(F)F)c2)cc1Nc1nccc(-c2cccnc2)n1` [Flumatinib], the cell viability came to 1.07.

For the compound `CC1=Nc2ccc(Cl)cc2S(=O)(=O)N1` [Diazoxide], the cell viability worked out at 1.17. As to `NC1(C(=O)N[C@@H](CCO)c2ccc(Cl)cc2)CCN(c2nc[nH]c3nccc2-3)CC1` [Capivasertib], the cell viability stood at 1.01. For `Oc1ccc(OCc2ccccc2)cc1` [Monobenzone], the cell viability came to 1.15. `CC(C)C1=CC2=CC[C@@H]3[C@](C)(CCC[C@@]3(C)C(=O)O)[C@H]2CC1` [Abietic Acid]: the cell viability is 1.21.

On to `CNC(=O)[C@H](Cc1c[nH]c2ccccc12)NC(=O)[C@@H](CC(=O)NO)CC(C)C` [Ilomastat], for which the cell viability amounted to 0.991. For the compound `COc1cccc(/C=N/N(C(=O)C(F)(F)F)c2ccc(C)cc2C)c1`, the cell viability came out at 1.12. Turning to `C[C@]12CC[C@@H]3c4ccc(O)cc4CC[C@H]3[C@@H]1CC[C@H]2O` [17α-Estradiol], the cell viability is 1.12. `O=C(O)/C=C/c1ccc(Cn2ccnc2)cc1` [Ozagrel hydrochloride]: the cell viability worked out at 1.15. In the case of `O=C(O)/C=C/c1ccc(Cn2ccnc2)cc1` [Ozagrel], the cell viability came to 1.17.

On to `COc1cc2nccc(Oc3ccc(NC(=O)C4(C(=O)Nc5ccc(F)cc5)CC4)cc3)c2cc1OC` [Cabozantinib Malate], for which the cell viability stood at 1. Take `COc1cc2nccc(Oc3ccc(NC(=O)C4(C(=O)Nc5ccc(F)cc5)CC4)cc3)c2cc1OC` [Cabozantinib]: the cell viability came out at 1.03.

Turning to `O=C1CCc2ccccc2C1` [Beta-Tetralone], the cell viability stood at 1.16. On to `CNC(=O)c1cc(COc2nnc(Nc3ccc(Cl)cc3)c3ccoc23)ccn1` [Telatinib], for which the cell viability came out at 1.05.

`CCCc1nc(C)c2c(=O)nc(-c3cc(S(=O)(=O)N4CCN(CC)CC4)ccc3OCC)[nH]n12` [Vardenafil hydrochloride trihydrate]: the cell viability turned out to be 0.84. Consider `N[C@@H]1CC[C@@H](c2ccc(Cl)c(Cl)c2)c2ccccc21` [Dasotraline hydrochloride], for which the cell viability amounted to 1.14. For the compound `Cc1cc(C)cc(C(=O)NOCCCCCC(=O)NO)c1`, the cell viability was 0.796.

Consider `CCn1nc(C(=O)O)c(=O)c2cc3c(cc21)OCO3` [Cinoxacin], for which the cell viability was 0.902.

Regarding `CCOc1nc2cccc(C(=O)O)c2n1Cc1ccc(-c2ccccc2-c2noc(=O)[nH]2)cc1` [Azilsartan], the cell viability is 1.09. In the case of `CC(C)(Oc1ccc(C(=O)c2ccc(Cl)cc2)cc1)C(=O)O` [Fenofibric acid], the cell viability stood at 1.28. Turning to `Cc1cc([C@@H](C)Nc2ccccc2C(=O)O)c2nc(N3CCOCC3)cc(=O)n2c1`, the cell viability was 1.09. For the compound `COc1cc(O)c(C(=O)Nc2nc(C(=O)NCCN(C(C)C)C(C)C)cs2)cc1OC` [Acotiamide hydrochloride], the cell viability amounted to 0.934. For `COc1ccc2c(c1)C(c1ccc(F)cc1)=C(CN1CCCC1)CO2`, the cell viability stood at 1.1.

Turning to `O=C1CC2(CCCC2)CC(=O)N1CCCCN1CCN(c2ncccn2)CC1` [Buspirone hydrochloride], the cell viability is 1.16. Take `O=C(NOC[C@H](O)CO)c1ccc(F)c(F)c1Nc1ccc(I)cc1F`: the cell viability was 0.82.

In the case of `Cc1cc(C)c(/C=C2\C(=O)Nc3ccccc32)[nH]1` [Semaxanib], the cell viability is 0.924.

`CC1(C)CC[C@]2(C(=O)O)CC[C@]3(C)C(=CC[C@@H]4[C@@]5(C)CC[C@H](O)[C@@](C)(CO)[C@@H]5CC[C@]43C)[C@@H]2C1` [Hederagenin]: the cell viability was determined as 1.19.

Turning to `COc1ccc(S(=O)(=O)N(C(C)=O)c2ccccc2/C=C/c2cc[n+]([O-])cc2)cc1`, the cell viability is 0.614. Turning to `CNC(C)C1CCC(N)C(OC2C(N)CC(N)C(OC3OCC(C)(O)C(NC)C3O)C2O)O1` (stereo not drawn) [Gentamycin sulfate], the cell viability was found to be 0.939. In the case of `Cc1c(F)cc(C(=O)NC2CC2)cc1-c1ccc(C(=O)NCC(C)(C)C)cn1` [Losmapimod], the cell viability was 1.11. As for `Cc1nc(-c2cn3c(n2)-c2ccc(-c4cnn(C(C)(C)C(N)=O)c4)cc2OCC3)n(C(C)C)n1` [Taselisib], the cell viability is 0.612. For the compound `Nc1nc(NCCc2ccc(O)cc2)nc2nc(-c3ccco3)nn12`, the cell viability came to 1.05.

On to `COc1ccc(C(NC(=O)c2cnc(-c3cccnn3)[nH]c2=O)c2ccc(OC)cc2)cc1`, for which the cell viability turned out to be 0.98.

`O=c1nc(N2CCN(CC3CCCCC3)CC2)sc2c([N+](=O)[O-])cc(C(F)(F)F)cc12`: the cell viability was 1.08.

In the case of `CNC(=O)c1cnn(-c2nc(N)c3ncn([C@@H]4O[C@H](CO)[C@@H](O)[C@H]4O)c3n2)c1` [Regadenoson], the cell viability was determined as 0.981.

`N#Cc1ccnc(N2C(=O)CC[C@H]2C(=O)N(c2cncc(F)c2)[C@H](C(=O)NC2CC(F)(F)C2)c2ccccc2Cl)c1` [Ivosidenib]: the cell viability worked out at 1.09. For the compound `C=CC(=O)Nc1ccc2ncnc(Nc3cccc(Br)c3)c2c1`, the cell viability came out at 0.914. In the case of `CCC(=O)c1c(O)cc(O)cc1O` [Flopropione] it was 1.11. In the case of `CC1Cc2ccccc2N1NC(=O)c1ccc(Cl)c(S(N)(=O)=O)c1` (stereo not drawn) [Indapamide], the cell viability came out at 1.34. For `O=C(CCCCCCNC(=O)c1cnc(N(c2ccccc2)c2ccccc2Cl)nc1)NO` [Citarinostat], the cell viability turned out to be 1.03. On to `O=C(/C=C\n1cnc(-c2cc(C(F)(F)F)cc(C(F)(F)F)c2)n1)NNc1ccccn1` [Verdinexor], for which the cell viability is 0.555. For `O=C(O)c1ccc(CN2CCC(CN[C@@H]3C[C@H]3c3ccccc3)CC2)cc1`, the cell viability stood at 0.997. Consider `CCOCC(O)COc1ccc(NC(=O)CC[S+](C)C)cc1` (stereo not drawn) [Suplatast tosilate], for which the cell viability was 1.07.

As for `CN1CCN(CCOc2cc(OC3CCOCC3)c3c(Nc4c(Cl)ccc5c4OCO5)ncnc3c2)CC1` [Saracatinib], the cell viability was 1.13. Consider `Cc1cc(CC(=O)O)n(C)c1C(=O)c1ccc(Cl)cc1` [Zomepirac Sodium], for which the cell viability came to 0.884. Consider `O=C(NCCCNc1nc(Nc2cccc(CN3CCOCC3)c2)ncc1C1CC1)C1CCC1`, for which the cell viability turned out to be 0.937. For the compound `Nc1ccc2cc3ccc(N)cc3nc2c1` [Proflavine Hemisulfate], the cell viability was determined as 1.13. For the compound `C[C@H](CCC(=O)O)[C@H]1CC[C@H]2[C@@H]3CC[C@@H]4C[C@H](O)CC[C@]4(C)[C@H]3C[C@H](O)[C@]12C` [Deoxycholic acid], the cell viability was determined as 1.12. `Nc1ncnc2c1c(I)cn2[C@@H]1O[C@H](CO)[C@@H](O)[C@H]1O` [5-Iodotubercidin]: the cell viability worked out at 0.918. Turning to `CCC(=O)Oc1ccc2c(c1)CCC1C2CCC2(C)C(OC(=O)CC)CCC12` (stereo not drawn) [17-Beta-Estradiol-3,17-Dipropionate], the cell viability came out at 1.24.

These data come from the supplement of paper PMC10600219.
